Assay results reported in the supplement of paper PMC3334620.
Over roughly 33,000 sequences, “E-score (-0.5 to 0.5)” has its median near -0.054; the highest 2% begin near 0.39. This is one part of the list.

target: Ylr278c (UniProt Q05854); experiment: PBM E-score (8-mer binding enrichment) (E-score (-0.5 to 0.5)); higher = stronger / more preferred TF binding; most listed sequences are background and not binding sites; conditions: protein concentration: 200 nM; construct: GST-DNA-binding domain
Protocol: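 Universal 'all 10-mer' protein binding microarrays (Agilent AMADID 015681) probed with GST-tagged S. cerevisiae TFs (full-length or DBD) made by in vitro transcription/translation (PURExpress), about 100-200 nM. Bound TF was detected with fluorescent anti-GST. Each ungapped 8-mer (which stands for itself and its reverse complement) is scored by the PBM enrichment score (E-score), a modified Wilcoxon-Mann-Whitney statistic from -0.5 to +0.5, computed with the Universal PBM Analysis Suite. Scale: above 0.35 generally sequence-specific binding.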

First: ATCGGAAG
Second: TAATAGTA
The “PBM E-score” value of the first is higher: 0.332 for the first, 0.0651 for the second.

Compared with CCTAGGAG, GGGCGGAA is higher in “PBM E-score” value: -0.0413 for the first, 0.364 for the second.

First: CCGATCAA
Second: GGATGAAC
The “PBM E-score” value of the first is higher: 0.19 for the first, -0.021 for the second.

First: CCCTAAAA
Second: GTCGGCCA
The “PBM E-score” value of the first is lower: -0.105 for the first, 0.0233 for the second.

Going from ACCAAGCG to CCAGACTA, the “PBM E-score” value falls from -0.0326 to -0.258.

First: TACATGTA
Second: CCCCCCAC
The “PBM E-score” value of the first is higher: 0.00055 for the first, -0.329 for the second.

Going from CCAATTAG to ATGGGACC, the “PBM E-score” value falls from -0.093 to -0.0947.

First: AGTAACAC
Second: CTCGGGAA
The “PBM E-score” value of the first is lower: -0.00143 for the first, 0.201 for the second.

Going from CTAGCGCA to CAGAGCTA, the “PBM E-score” value falls from -0.163 to -0.286.

Going from AAAAGATT to CGCACAAG, the “PBM E-score” value falls from 0.0249 to -0.0172.

First: CAATACAA
Second: GGTGCCTA
The “PBM E-score” value of the first is higher: -0.0663 for the first, -0.116 for the second.

First: CACATTTC
Second: CAGGGAGC
The “PBM E-score” value of the first is higher: 0.2 for the first, -0.108 for the second.

Compared with CATAACTA, GAGGAGAA is lower in “PBM E-score” value: -0.0216 for the first, -0.0438 for the second.

Going from CGGGTACG to CTTAGCCA, the “PBM E-score” value falls from 0.0859 to -0.122.

Compared with CTCAGTGC, ACTATTTC is higher in “PBM E-score” value: 0.0361 for the first, 0.0859 for the second.

First: ACCCCCCG
Second: GACTAGTA
The “PBM E-score” value of the first is higher: 0.219 for the first, -0.181 for the second.

Going from CACTGTCG to GGCCAGCC, the “PBM E-score” value falls from 0.025 to -0.182.

Compared with ACAAGCTC, CGAAGGAC is higher in “PBM E-score” value: 0.0206 for the first, 0.111 for the second.

First: ATTTATTA
Second: TTTGAAAA
The “PBM E-score” value of the first is higher: 0.0692 for the first, -0.139 for the second.

Going from AATCAGAA to ATCTCCAT, the “PBM E-score” value rises from 0.00389 to 0.115.

Compared with AATTTGAG, GGACTGAC is higher in “PBM E-score” value: -0.15 for the first, -0.0427 for the second.

First: TGGACAAA
Second: CCACTGAC
The “PBM E-score” value of the first is higher: -0.0419 for the first, -0.217 for the second.

Compared with CCGTTTCG, AATTCGAC is lower in “PBM E-score” value: 0.141 for the first, -0.32 for the second.

Going from ACAGTTCG to CGCACCGA, the “PBM E-score” value falls from 0.175 to 0.0664.

Going from GATATCAC to CGTTGCAC, the “PBM E-score” value rises from -0.0631 to 0.0328.

Compared with CTTGTGCA, AGAGCGTA is higher in “PBM E-score” value: -0.101 for the first, -0.0109 for the second.

Going from TACGATGA to ACCCTACC, the “PBM E-score” value rises from -0.16 to -0.122.

Going from CCTGTAGC to CTCTGGGC, the “PBM E-score” value rises from -0.21 to -0.104.

Compared with GCCTTAAC, AGGGGTAA is higher in “PBM E-score” value: -0.258 for the first, -0.236 for the second.

First: AACACCGG
Second: CGAGGCGC
The “PBM E-score” value of the first is higher: 0.411 for the first, 0.0675 for the second.

Compared with AACCGGGG, AATGACGC is lower in “PBM E-score” value: 0.321 for the first, -0.18 for the second.

First: GACGCGCA
Second: AGTGAGCA
The “PBM E-score” value of the first is higher: -0.033 for the first, -0.231 for the second.

Compared with ATCGAGAG, CGACGCGC is higher in “PBM E-score” value: -0.127 for the first, 0.21 for the second.

Compared with TATCATAA, CGAACCGC is higher in “PBM E-score” value: -0.126 for the first, 0.214 for the second.

Compared with CGAATTGA, GATTGCAC is higher in “PBM E-score” value: -0.0135 for the first, 0.0435 for the second.

First: CTCCACCC
Second: TGTGAAAA
The “PBM E-score” value of the first is higher: -0.105 for the first, -0.163 for the second.

Compared with ACATATAG, AAGGAACT is lower in “PBM E-score” value: 0.032 for the first, -0.0853 for the second.

First: GATCAGGA
Second: GATAGATA
The “PBM E-score” value of the first is lower: -0.121 for the first, -0.0448 for the second.

Compared with AAGATGGT, ACAGGACT is higher in “PBM E-score” value: -0.0478 for the first, -0.0279 for the second.

First: ACGTAAAG
Second: AGTATTGA
The “PBM E-score” value of the first is lower: -0.189 for the first, -0.146 for the second.

Compared with CCTCTGCG, AAACGACA is lower in “PBM E-score” value: -0.125 for the first, -0.14 for the second.

First: CGATTTTC
Second: ACGCGTCG
The “PBM E-score” value of the first is lower: 0.153 for the first, 0.183 for the second.

Compared with CGCGTGTA, CCTAGTCC is higher in “PBM E-score” value: 0.00891 for the first, 0.0197 for the second.

Going from TCTGTACA to AGATCTGA, the “PBM E-score” value falls from -0.0142 to -0.0169.

First: AAGGCGGG
Second: CTCAGCCC
The “PBM E-score” value of the first is higher: 0.0319 for the first, -0.249 for the second.

First: GTCGCTCA
Second: TCCTTCAA
The “PBM E-score” value of the first is lower: -0.29 for the first, -0.0355 for the second.

Compared with ACGATGTG, TCCATCCA is lower in “PBM E-score” value: -0.166 for the first, -0.252 for the second.

Compared with AGCTACGA, CATTCTCC is higher in “PBM E-score” value: -0.254 for the first, 0.191 for the second.

Going from GCTTGAAA to GCGCTTCC, the “PBM E-score” value rises from -0.0583 to 0.174.

Compared with ATAACGTC, GGCAGACA is higher in “PBM E-score” value: -0.0967 for the first, -0.072 for the second.

Going from GCCCCAAA to TCGCTTCA, the “PBM E-score” value rises from -0.15 to -0.0182.

First: CTTTGTCA
Second: ACCGCAAG
The “PBM E-score” value of the first is lower: 0.00403 for the first, 0.175 for the second.

Going from GATCATAC to AGGAATGG, the “PBM E-score” value falls from 0.0298 to -0.216.

Compared with AGACTTCC, AATACACC is higher in “PBM E-score” value: 0.103 for the first, 0.171 for the second.

Going from CGACCTAG to ATACAAGC, the “PBM E-score” value falls from 0.02 to -0.00455.

Going from CGACTGGC to ACTTTATA, the “PBM E-score” value falls from 0.0877 to 0.0648.

Going from ACATGTGA to CAGGGTGG, the “PBM E-score” value rises from -0.237 to -0.199.

First: CTGTTGAC
Second: CAAAATAA
The “PBM E-score” value of the first is lower: -0.276 for the first, 0.00247 for the second.

Going from ACGTCCTC to AGATACGC, the “PBM E-score” value rises from -0.0717 to -0.0002.

Going from CACATATC to ATCTGAGA, the “PBM E-score” value falls from -0.149 to -0.201.

Compared with GATGACCA, ATTCTACC is higher in “PBM E-score” value: -0.0341 for the first, -0.00365 for the second.

Going from ATTGACTC to ATGTTCGA, the “PBM E-score” value falls from -0.00622 to -0.184.

First: GTCAGGGA
Second: AGCATAAC
The “PBM E-score” value of the first is higher: -0.062 for the first, -0.121 for the second.

Compared with GCTCGGTA, TACGGATA is lower in “PBM E-score” value: 0.136 for the first, 0.123 for the second.

Going from GCGCACAC to CGCAACGC, the “PBM E-score” value rises from 0.132 to 0.134.

Compared with ACAGTTTA, CAAGTCAC is higher in “PBM E-score” value: -0.109 for the first, -0.0166 for the second.

Going from GAGCACCC to GGGGATAC, the “PBM E-score” value rises from 0.0213 to 0.0614.

Compared with CAGATTTC, CCTAGAGC is higher in “PBM E-score” value: -0.0171 for the first, 0.032 for the second.

Going from CACGCCTA to CGGATTAC, the “PBM E-score” value rises from -0.312 to 0.293.

Going from GGCTTTCA to GTTTCACA, the “PBM E-score” value falls from 0.0919 to -0.145.

First: CGTTGGAG
Second: ACGTGCCC
The “PBM E-score” value of the first is lower: -0.0709 for the first, 0.00925 for the second.

Compared with GCCGCCCA, GACTGCCA is lower in “PBM E-score” value: 0.179 for the first, -0.0149 for the second.

Compared with AGTCAAAG, ACGCACAA is higher in “PBM E-score” value: -0.065 for the first, -0.021 for the second.

Going from AATGAAGG to CCTCGATA, the “PBM E-score” value rises from -0.103 to 0.0123.

Compared with AGTCTGGA, GCTTCCTA is higher in “PBM E-score” value: -0.179 for the first, -0.0609 for the second.

Going from AACAAACG to TCTCTACA, the “PBM E-score” value falls from -0.0598 to -0.211.

First: GCGGTCCC
Second: TTAGGGAA
The “PBM E-score” value of the first is higher: 0.129 for the first, -0.146 for the second.

Compared with CAGAGAAC, AGGCACGA is higher in “PBM E-score” value: -0.231 for the first, -0.142 for the second.

First: ATGAAAGC
Second: AAGGTGTC
The “PBM E-score” value of the first is higher: -0.0408 for the first, -0.0958 for the second.

Going from ACGGTAGT to AATAGGGG, the “PBM E-score” value rises from -0.0374 to 0.0914.

Compared with CGCAGGAG, GCCCACAC is lower in “PBM E-score” value: -0.00604 for the first, -0.0665 for the second.

Going from CTATGCTC to ATTAGGGA, the “PBM E-score” value rises from -0.237 to -0.0669.

First: AAACGCTG
Second: CATACTTC
The “PBM E-score” value of the first is lower: -0.189 for the first, -0.0775 for the second.

First: CTTCCTTC
Second: AGAAAGAT
The “PBM E-score” value of the first is lower: -0.3 for the first, -0.103 for the second.

Going from TGCGGCAA to GTAACCAC, the “PBM E-score” value falls from 0.0515 to -0.244.

Compared with GCTGGCTA, CCAGCGGG is higher in “PBM E-score” value: -0.218 for the first, 0.11 for the second.
